Data: the supplement of paper PMC6531468
Some of the results follow. These are enrichments in a pooled selection; single values are uncertain. Each score is taken over the longer molecules that contain the sequence shown.

Legend:
Experiment in all cases: 6-mer SELEX enrichment z-score vs GST control; IMP3 is the RNA-binding protein IGF2BP3; higher = more enriched by binding
IMP3 KH1-4 = conditions: construct: KH1-4 (164-579); SELEX round: R4
Protocol: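 SELEX-seq with GST-tagged IMP3 KH1-4 (Pro164-Lys579) and an N40 RNA pool, round 4. 6-mer z-score of sequence-tag enrichment normalised to the corresponding GST SELEX round; RNA k-mers written as DNA (T for U).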

IMP3 RRM1-2 = conditions: construct: RRM1-2 (1-163); SELEX round: R2
Sequence of IMP3 RRM1-2 (chain, as listed by the source): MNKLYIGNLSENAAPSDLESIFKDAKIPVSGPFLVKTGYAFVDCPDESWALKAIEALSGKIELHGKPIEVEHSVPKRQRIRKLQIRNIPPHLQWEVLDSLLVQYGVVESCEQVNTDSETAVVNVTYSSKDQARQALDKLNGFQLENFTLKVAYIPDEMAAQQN
Protocol: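 SELEX-seq with GST-tagged IMP3 RRM1-2 (Met1-Asn163) and an N40 RNA pool, round 2. 6-mer enrichment z-score normalised to GST SELEX. RNA written as DNA (T = U).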

IMP3 full-length = IMP3 full-length (UniProt O00425); conditions: construct: FL IMP3 (1-579); SELEX round: R4
Sequence of UniProt O00425 (O00425 whole entry): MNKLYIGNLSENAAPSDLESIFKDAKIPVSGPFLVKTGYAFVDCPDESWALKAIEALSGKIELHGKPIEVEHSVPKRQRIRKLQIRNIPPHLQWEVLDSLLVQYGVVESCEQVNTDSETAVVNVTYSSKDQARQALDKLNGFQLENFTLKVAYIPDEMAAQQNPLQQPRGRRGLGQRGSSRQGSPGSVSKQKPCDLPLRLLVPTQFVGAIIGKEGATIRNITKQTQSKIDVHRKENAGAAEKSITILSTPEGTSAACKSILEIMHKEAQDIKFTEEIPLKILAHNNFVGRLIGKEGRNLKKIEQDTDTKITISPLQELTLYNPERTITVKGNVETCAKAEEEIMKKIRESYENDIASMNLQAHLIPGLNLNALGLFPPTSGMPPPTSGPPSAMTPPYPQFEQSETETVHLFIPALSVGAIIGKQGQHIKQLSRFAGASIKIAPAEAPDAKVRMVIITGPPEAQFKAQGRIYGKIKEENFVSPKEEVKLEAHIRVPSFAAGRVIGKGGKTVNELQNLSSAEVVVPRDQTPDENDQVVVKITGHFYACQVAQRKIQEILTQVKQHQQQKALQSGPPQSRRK
Protocol: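 SELEX-seq with GST-tagged full-length IMP3 and an N40 RNA pool, round 4. Each 6-mer is scored as an enrichment z-score of sequence tags containing it, normalised to the matching GST SELEX round. RNA written as DNA (T = U).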

IMP3 KH1-2 = conditions: construct: KH1-2 (164-376); SELEX round: R4
Sequence of IMP3 KH1-2 (chain, as listed by the source): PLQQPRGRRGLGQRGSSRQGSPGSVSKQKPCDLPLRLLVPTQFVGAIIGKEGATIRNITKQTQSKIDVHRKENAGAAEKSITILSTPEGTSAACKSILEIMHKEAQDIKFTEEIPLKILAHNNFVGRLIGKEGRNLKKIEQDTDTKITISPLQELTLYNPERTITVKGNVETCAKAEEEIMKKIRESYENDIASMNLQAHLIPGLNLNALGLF
Protocol: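 SELEX-seq with GST-tagged IMP3 KH1-2 (Pro164-Phe376) and an N40 RNA pool, round 4 (stringent 300/600 mM KCl washes). 6-mer z-score of sequence-tag enrichment normalised to the corresponding GST SELEX round; RNA k-mers written as DNA (T for U).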

IMP3 KH3-4 = conditions: construct: KH3-4 (377-579); SELEX round: R4
Sequence of IMP3 KH3-4 (chain, as listed by the source): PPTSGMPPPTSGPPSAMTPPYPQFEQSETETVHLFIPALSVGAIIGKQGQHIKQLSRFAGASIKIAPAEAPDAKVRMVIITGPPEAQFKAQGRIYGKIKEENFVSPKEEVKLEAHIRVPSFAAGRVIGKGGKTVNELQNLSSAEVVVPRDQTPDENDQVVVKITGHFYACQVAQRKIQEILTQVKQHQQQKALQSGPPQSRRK
Protocol: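 SELEX-seq with GST-tagged IMP3 KH3-4 (Pro377-Lys579) and an N40 RNA pool, round 4. 6-mer z-score of sequence-tag enrichment normalised to the corresponding GST SELEX round; RNA k-mers written as DNA (T for U).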

Sequence of IMP3 KH1-4 (chain, as listed by the source): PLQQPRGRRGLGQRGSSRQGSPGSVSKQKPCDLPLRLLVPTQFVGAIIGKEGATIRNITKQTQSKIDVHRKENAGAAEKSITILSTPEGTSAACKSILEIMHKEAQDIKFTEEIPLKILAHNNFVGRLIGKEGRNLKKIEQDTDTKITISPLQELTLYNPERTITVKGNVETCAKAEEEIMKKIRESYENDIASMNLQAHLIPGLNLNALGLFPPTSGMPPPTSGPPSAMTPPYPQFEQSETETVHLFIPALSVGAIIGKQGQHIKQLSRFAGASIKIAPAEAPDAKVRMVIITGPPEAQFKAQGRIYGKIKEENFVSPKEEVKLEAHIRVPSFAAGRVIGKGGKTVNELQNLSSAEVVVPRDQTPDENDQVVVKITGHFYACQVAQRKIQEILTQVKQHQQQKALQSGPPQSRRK

Sequence	6-mer SELEX enrichment z-score (IMP3 KH1-4)	6-mer SELEX enrichment z-score (IMP3 RRM1-2)	6-mer SELEX enrichment z-score (IMP3 full-length)	6-mer SELEX enrichment z-score (IMP3 KH1-2)	6-mer SELEX enrichment z-score (IMP3 KH3-4)
GGTTAT	0.115	0.4	0.098	0.113	0.323
CCGAGC	-3.68	-0.277	-0.35	-3.32	-3.27
GGCACC	0.303	0.408	1.67	0.155	-0.148
ACCGCC	-0.187	-0.962	-0.301	0.21	-1.03
ACAGAC	0.321	0.804	0.74	0.753	-0.022
CCGCCA	0.622	-0.265	0.646	0.859	-0.314
ACAAGG	0.415	0.07	0.545	0.243	0.49
TGCAGT	0.738	0.19	0.342	0.541	0.448
GATCTG	-0.067	-0.12	-0.073	-0.087	-0.053
GCATGT	0.43	0.545	0.604	0.245	0.314
CACACC	0.306	1.24	0.848	0.37	-1.26
CATGAA	1.34	0.088	0.878	1.09	1.41
CAGGGC	-0.18	0.551	0.934	-0.01	0.04
GCATAC	0.726	0.579	1.2	0.455	0.293
GGCAAA	0.921	-0.128	1.08	0.426	1.4
GGTATG	0.015	0.27	0.083	0.028	0.207
AGTAAG	0.384	-0.391	-0.023	0.249	0.539
AGAACA	1.34	0.333	0.906	1.34	1.7
AATCCG	-0.522	-0.752	-0.53	-0.119	-0.861
GTCCCA	-0.87	-0.123	-0.281	-0.824	-1.14

Sequence	6-mer SELEX enrichment z-score (IMP3 KH1-4)	6-mer SELEX enrichment z-score (IMP3 RRM1-2)	6-mer SELEX enrichment z-score (IMP3 full-length)	6-mer SELEX enrichment z-score (IMP3 KH1-2)	6-mer SELEX enrichment z-score (IMP3 KH3-4)
AAGGAC	0.039	-1.07	-0.565	-0.227	0.042
AATCCT	0.119	-0.458	-0.632	0.063	-0.184
GGCCCG	-0.546	-0.315	0.203	-0.276	-0.735
GGAAAG	0.382	-1.16	-0.454	0.222	0.599
CGCACT	0.416	0.286	0.486	0.437	0.024
AATAAG	0.894	-0.957	-0.374	0.813	1.92
CAGGTC	0.327	0.516	0.94	0.147	0.076
GTGGAA	0.125	-0.436	-0.286	0.009	0.154
ATAGCG	-0.597	0.001	-0.213	-0.513	-0.16
CAGGTG	0.145	0.326	0.427	0.087	0.078
TTTTTC	1.02	0.449	0.458	1.21	1.25
CTGCCT	-0.391	-0.06	-0.416	-0.322	-0.464
TGTCCT	0.295	0.049	-0.126	0.087	0.055
TCCCAG	-0.894	-0.401	-0.587	-0.875	-1.06
CTGTTC	0.492	0.166	0.176	0.479	0.221
GAAACG	-1.28	-1.88	-1.54	-1.34	-0.958
GTCACT	0.295	0.452	0.359	0.113	0.124
GCCGAA	-1.41	-1.25	-0.891	-1.13	-1.23
GCACGA	0.225	-0.017	0.858	0.023	0.028
GTTATG	0.275	0.134	-0.114	0.086	0.264

Sequence	6-mer SELEX enrichment z-score (IMP3 KH1-4)	6-mer SELEX enrichment z-score (IMP3 RRM1-2)	6-mer SELEX enrichment z-score (IMP3 full-length)	6-mer SELEX enrichment z-score (IMP3 KH1-2)	6-mer SELEX enrichment z-score (IMP3 KH3-4)
TGCCTC	-0.642	0.032	-0.323	-0.579	-0.71
AAACGA	-2.08	-2.87	-2.79	-2.16	-1.37
AACTGC	0.055	-0.794	-0.538	0.205	-0.344
GCAAGC	-0.039	0.421	0.7	-0.032	-0.179
TCGTGG	-0.328	0.24	0.019	-0.259	-0.141
AACCAA	-1.69	-0.448	-2.06	-1.54	-1.94
AACAGG	0.743	0.68	1.06	0.767	0.866
CCGTAG	-1.11	-0.217	-0.511	-0.991	-1.07
TTGCCC	-1.01	-0.09	-0.92	-0.865	-1.24
AGTATG	0.376	-0.111	-0.058	0.191	0.529
AGATCA	0.938	1.18	0.966	0.735	0.925
GGACAC	0.433	0.333	0.623	0.307	-0.016
AGTGGT	-0.008	0.285	0.032	0.006	0.124
ACCGGC	0.681	-0.206	1.39	0.353	0.148
GGCAAG	0.913	0.087	1.18	0.665	0.962
CCTTCC	0.101	-0.111	-0.703	0.211	-0.65
GTACAA	-0.242	-0.152	0.157	-0.252	-0.292
GACTTG	-0.683	-0.167	-0.586	-0.681	-0.62
AGATCG	0.087	-0.427	0.169	-0.129	0.201
ATCCCA	-0.962	-0.502	-0.938	-1.03	-1.58
